The list shows a part of the results.
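Also: jurkat cells carrying a lentiviral library of mutant zinc finger degrons fused to EGFP plus mCherry, mCherry+ cells FACS sorted, degron abundance counted by next-generation sequencing.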

In the assay the target is no compound (DMSO). Nature of the assay: log2 fold change of degron read counts, EGFP-low vs EGFP+ sorted cells; higher = lower degron-EGFP level without compound (poor expression or instability). Conditions: compound: DMSO control; 18 h.
Consider FWCEICGAGFTQKGNLLRHIKL, for which the “log2 fold change of degron read counts” value is -1.02. For the sequence FYCNQCGHAFTQKGNLLRHIKL, the “log2 fold change of degron read counts” value was 0.392. The same measure for FRCNICGAFFTQKGNLLRHIKL: 0.547; for LECEICGFGCTQKGNLLRHIKL: -0.407. The same measure for FACNQCGRMFTQKGNLLRHIKL: 0.167; for LVCPICGFFCTQKGNLLRHIKL: 1.92. With FQCNVCGADFTQKGNLLRHIKL, the “log2 fold change of degron read counts” value was -0.756. For FECNVCGANFTQKGNLLRHIKL the value was -1.79. The same measure for FNCNICGAIFTQKGNLLRHIKL: 0.148; for FECEICGATFTQKGNLLRHIKL: -2.43. For FYCNVCGARFTQKGNLLRHIKL the value was -0.713; for FCCPVCGAAFTQKGNLLRHIKL, -0.0221. On to FTCDICGAGFTQKGNLLRHIKL, for which the “log2 fold change of degron read counts” value is -1.34. In the case of FHCEICGHKFTQKGNLLRHIKL, the “log2 fold change of degron read counts” value is -2.03.

Take LRCNQCGFPCTQKGNLLRHIKL: the “log2 fold change of degron read counts” value was 1.22.

Turning to FDCPQCGAHFTQKGNLLRHIKL, the “log2 fold change of degron read counts” value is -0.855. For FQCNICGAFFTQKGNLLRHIKL the value was -0.4; for FKCNQCGAVFTQKGNLLRHIKL, -0.759; for FWCEQCGATFTQKGNLLRHIKL, -1.51. With FKCEICGACFTQKGNLLRHIKL, the “log2 fold change of degron read counts” value is -1.22. The same measure for FYCDQCGALFTQKGNLLRHIKL: -1.2; for FGCNQCGRYFTQKGNLLRHIKL: 0.795; for LHCNQCGFYCTQKGNLLRHIKL: 1.53. For FTCDVCGAEFTQKGNLLRHIKL the value was -1.89. The same measure for FGCEICGHPFTQKGNLLRHIKL: -0.237. For the sequence FVCPICGARFTQKGNLLRHIKL, the “log2 fold change of degron read counts” value was -0.502. The same measure for LFCEICGFLCTQKGNLLRHIKL: 1.93; for FDCEICGRGFTQKGNLLRHIKL: -0.758.

For the sequence LSCPICGFDCTQKGNLLRHIKL, the “log2 fold change of degron read counts” value was 0.128.

With FNCNICGAKFTQKGNLLRHIKL, the “log2 fold change of degron read counts” value was -0.604.

In the case of FACNQCGAPFTQKGNLLRHIKL, the “log2 fold change of degron read counts” value was -0.239. The same measure for FYCNQCGAKFTQKGNLLRHIKL: -0.179; for FYCEQCGACFTQKGNLLRHIKL: -0.792. For FNCEICGRGFTQKGNLLRHIKL the value was -2.17; for FKCPICGRPFTQKGNLLRHIKL, -0.319; for FICEICGATFTQKGNLLRHIKL, -1.41. For FGCPICGAMFTQKGNLLRHIKL the value was -0.185. As for LNCNQCGFDCTQKGNLLRHIKL, the “log2 fold change of degron read counts” value was -0.418. The same measure for FVCNVCGAMFTQKGNLLRHIKL: -0.477. On to FECEQCGASFTQKGNLLRHIKL, for which the “log2 fold change of degron read counts” value was -3.21.

Turning to LGCEICGFLCTQKGNLLRHIKL, the “log2 fold change of degron read counts” value stood at 1.91.

On to FDCNVCGATFTQKGNLLRHIKL, for which the “log2 fold change of degron read counts” value is -1.74. For FACPICGHEFTQKGNLLRHIKL the value was -0.569. For the sequence FICDQCGAGFTQKGNLLRHIKL, the “log2 fold change of degron read counts” value was -2.82. On to FACSVCGHIFTQKGNLLRHIKL, for which the “log2 fold change of degron read counts” value came out at 0.889. For FVCDQCGAFFTQKGNLLRHIKL the value was -1.07; for FQCDQCGAYFTQKGNLLRHIKL, -1.3. For FRCEICGHDFTQKGNLLRHIKL the value was -0.9. For FECPICGHKFTQKGNLLRHIKL the value was -0.866; for FVCEQCGAYFTQKGNLLRHIKL, -1.13.

These data come from the supplement of paper PMC12645437, “Orthogonal IMiD-Degron Pairs Induce Selective Protein Degradation in Cells” (ACS Chemical Biology, 2025).
